Measurements reported in the supplement of paper PMC4967469.

Tests used:
Assay in all cases: Viability of human cancer cell lines after 72 h of drug (GDSC screen)
[1] = compound: CO[C@@H]1[C@H](N(C)C(=O)c2ccccc2)C[C@H]2O[C@]1(C)n1c3ccccc3c3c4c(c5c6ccccc6n2c5c31)C(=O)NC4 [Midostaurin]; conditions: top dose 0.512 µM; top dose inferred
Procedure: (§1)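 Human cancer cell lines in 384-well plates, medium with 10% serum, drug for 72 h over a 256-fold dose range (nine 2-fold or five 4-fold steps up to the top dose). Adherent lines were fixed and stained with the nucleic acid dye Syto60, suspension lines read with resazurin; signal relative to control wells, capped at 0 and 100%. One two-parameter sigmoid per drug and line, fitted in a mixed model over all curves with the slope shared within a line.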

[2] = compound: CO[C@@]12[C@H](COC(N)=O)C3=C(C(=O)C(C)=C(N)C3=O)N1C[C@@H]1N[C@@H]12 [Mitomycin C]; conditions: top dose 16 µM
Procedure: as §1

[3] = compound: COc1cc(Nc2c(C#N)cnc3cc(OCCCN4CCN(C)CC4)c(OC)cc23)c(Cl)cc1Cl [Bosutinib]; conditions: top dose 2 µM
Procedure: as §1

[4] = compound: Cc1ccc(C(=O)Nc2cccc(C(F)(F)F)c2)cc1Nc1nc(-c2cccnc2)nc2c1cnn2C [NVP-BHG712]; conditions: top dose 10.24 µM; top dose inferred
Procedure: as §1

[5] = compound: O=C(O)CNC(=O)c1c(O)c2ccccc2n(Cc2ccccc2)c1=O [IOX2]; conditions: top dose 0.1 µM; top dose inferred
Procedure: as §1

Cell Line	AUC [1]	IC50 [1] [µM]	AUC [2]	IC50 [2] [µM]	AUC [3]	IC50 [3] [µM]	AUC [4]	IC50 [4] [µM]	AUC [5]	IC50 [5] [µM]
COLO-680N (oesophagus, adherent)	0.878	> 0.512	0.335	0.318	0.97	> 2	0.986	> 10.2	0.974	> 0.1
NCI-H2452 (mesothelioma, adherent)	0.929	> 0.512	0.817	11.2	0.967	> 2	0.978	> 10.2	0.981	> 0.1
MKN45 (stomach, adherent)	0.742	0.193	0.251	0.157	0.915	> 2	0.958	> 10.2	0.974	> 0.1
PE/CA-PJ15 (head and neck, adherent)	0.933	> 0.512	0.427	0.619	0.954	> 2	0.962	> 10.2	0.984	> 0.1
HCC1419 (breast, adherent)	0.98	> 0.512	0.705	4.89	0.979	> 2	0.946	> 10.2	0.959	> 0.1
CHL-1 (melanoma, adherent)	0.875	0.452	0.241	0.189	0.729	0.536	0.909	> 10.2	0.986	> 0.1
SBC-5 (small cell lung carcinoma, adherent)	0.88	0.362	0.055	< 0.0625	0.975	> 2	0.946	> 10.2	0.973	> 0.1
HMV-II (melanoma, adherent)	0.88	> 0.512	0.225	0.129	0.976	> 2	0.806	6.66	0.937	> 0.1
MS751 (cervix, adherent)	0.915	> 0.512	0.246	0.199	0.959	> 2	0.972	> 10.2	0.986	> 0.1
DMS-273 (small cell lung carcinoma, adherent)	0.732	0.154	0.227	0.151	0.985	> 2	0.813	5.92	0.983	> 0.1
647-V (bladder, adherent)	0.97	> 0.512	0.186	0.114	0.897	> 2	0.976	> 10.2	0.986	> 0.1
HCC1569 (breast, adherent)	0.9	> 0.512	0.447	0.684	0.977	> 2	0.946	> 10.2	0.978	> 0.1
OVKATE (ovary, adherent)	0.972	> 0.512	0.68	4.48	0.945	> 2	0.776	7.34	0.801	0.0959
HN (head and neck, adherent)	0.985	> 0.512	0.467	0.818	0.838	1.23	0.988	> 10.2	0.972	> 0.1
MDA-MB-415 (breast, adherent)	0.982	> 0.512	0.45	0.696	0.983	> 2	0.979	> 10.2	0.832	0.0966
TOV-21G (ovary, adherent)	0.901	> 0.512	0.57	1.58	0.71	0.519	0.941	> 10.2	0.979	> 0.1
KON (head and neck, adherent)	0.805	0.252	0.081	< 0.0625	0.73	0.556	0.987	> 10.2	0.967	> 0.1
FADU (head and neck, adherent)	0.922	> 0.512	0.221	0.159	0.769	0.725	0.984	> 10.2	0.983	> 0.1
EFM-192A (breast, adherent)	0.806	0.295	0.154	0.0734	0.96	> 2	0.962	> 10.2	0.984	> 0.1
SW1417 (large intestine, adherent)	0.956	> 0.512	0.516	1.11	0.977	> 2	0.811	6.58	0.982	> 0.1
IHH-4 (thyroid, semi-adherent)	0.767	0.155	0.054	< 0.0625	0.831	0.935	0.935	> 10.2	0.976	> 0.1
OE33 (oesophagus, adherent)	0.935	> 0.512	0.365	0.393	0.958	> 2	0.915	> 10.2	0.982	> 0.1
G-292 Clone A141B1 (osteosarcoma, adherent)	0.551	0.0478	0.955	> 16	0.972	> 2	0.958	> 10.2	0.967	> 0.1
KU-19-19 (bladder, adherent)	0.986	> 0.512	0.708	3.87	0.937	> 2	0.843	7.27	0.983	> 0.1
NCI-H2110 (non-small cell lung carcinoma, adherent)	0.943	> 0.512	0.103	< 0.0625	0.896	> 2	0.827	6.46	0.972	> 0.1
CAL-33 (head and neck, adherent)	0.89	> 0.512	0.421	0.607	0.611	0.252	0.974	> 10.2	0.912	> 0.1

Cell Line	AUC [1]	IC50 [1] [µM]	AUC [2]	IC50 [2] [µM]	AUC [3]	IC50 [3] [µM]	AUC [4]	IC50 [4] [µM]	AUC [5]	IC50 [5] [µM]
T98G (glioma, adherent)	0.79	0.21	0.391	0.514	0.982	> 2	0.966	> 10.2	0.987	> 0.1
RPMI-2650 (head and neck, adherent)	0.931	> 0.512	0.247	0.174	0.939	> 2	0.925	> 10.2	0.972	> 0.1
JHU-011 (head and neck, adherent)	0.8	0.243	0.048	< 0.0625	0.651	0.326	0.946	> 10.2	0.984	> 0.1
SR (lymphoid neoplasm, suspension)	0.868	0.391	0.059	< 0.0625	0.925	> 2	0.824	5.3	0.987	> 0.1
Becker (glioma, adherent)	0.929	> 0.512	0.485	0.906	0.958	> 2	0.93	> 10.2	0.968	> 0.1
KMRC-20 (kidney, adherent)	0.632	0.0745	0.402	0.536	0.948	> 2	0.979	> 10.2	0.986	> 0.1
HuO9 (osteosarcoma, adherent)	0.862	> 0.512	0.588	1.8	0.945	> 2	0.925	> 10.2	0.974	> 0.1
SK-HEP-1 (liver, adherent)	0.882	0.48	0.432	0.661	0.879	1.82	0.963	> 10.2	0.987	> 0.1
OVMIU (ovary, adherent)	0.922	> 0.512	0.453	0.722	0.818	1.51	0.777	5.2	0.887	> 0.1
RVH-421 (melanoma, adherent)	0.971	> 0.512	0.434	0.617	0.917	> 2	0.722	3.51	0.971	> 0.1
RXF393 (kidney, adherent)	0.823	0.472	0.588	1.91	0.897	> 2	0.822	9.3	0.96	> 0.1
CAL-12T (non-small cell lung carcinoma, adherent)	0.815	0.325	0.394		0.871	> 2	0.904	> 10.2	0.976	> 0.1
MDA-MB-175-VII (breast, adherent)	0.959	> 0.512	0.69	3.61	0.954	> 2	0.913	> 10.2	0.986	> 0.1
SJRH30 (rhabdomyosarcoma, adherent)	0.926	> 0.512	0.584	1.71	0.977	> 2	0.986	> 10.2	0.984	> 0.1
DBTRG-05MG (glioma, adherent)	0.889	> 0.512	0.403	0.517	0.87	> 2	0.83	8.03	0.946	> 0.1
NCI-H1755 (lung adenocarcinoma, adherent)	0.581	0.0553	0.74	5.51	0.911	> 2	0.404	0.334	0.96	> 0.1
LN-405 (glioma, adherent)	0.983	> 0.512	0.613	2.22	0.982	> 2	0.98	> 10.2	0.981	> 0.1
RT4 (bladder, adherent)	0.946	> 0.512	0.563	1.5	0.986	> 2	0.677	2.05	0.974	> 0.1
EGI-1 (biliary tract, adherent)	0.88	> 0.512	0.577	1.73	0.928	> 2	0.89	> 10.2	0.979	> 0.1
IGR-37 (melanoma, adherent)	0.797	0.217	0.153	0.0972	0.837	1.17	0.758	3.27	0.986	> 0.1
C-33-A (cervix, adherent)	0.935	> 0.512	0.388	0.493	0.696	0.444	0.848	7.68	0.939	> 0.1
RO82-W-1 (thyroid, adherent)	0.903	> 0.512	0.817	12.3	0.878	> 2	0.965	> 10.2	0.965	> 0.1
DOK (head and neck, adherent)	0.85	> 0.512	0.69	4.5	0.633	0.35	0.955	> 10.2	0.956	> 0.1
HCC1395 (breast, adherent)	0.786	0.27	0.495	0.968	0.944	> 2	0.967	> 10.2	0.976	> 0.1
NCI-H1993 (lung adenocarcinoma, adherent)	0.947	> 0.512	0.813	12.3	0.983	> 2	0.884	> 10.2	0.979	> 0.1

Lines with a small IC50 respond at low doses; where the fit passes the top or lowest dose, that dose stands as a limit. AUC is the area under the same curve over the 256-fold range up to the top dose, as a fraction: 1 means no effect, lower means more sensitive. For some assays here: A top dose marked as inferred comes from the curve model; the source does not state it.
